According to the supplement of paper PMC8728848:
The other results are listed elsewhere or left out.

How the values were obtained:
Experiment in all cases: glycan array binding signal (z-score within array); higher = stronger binding
Conditions in all cases: glycan notation: IUPAC condensed, linker removed
GalNAc(b1-4)GlcNAc = biological target: GalNAc(b1-4)GlcNAc
How it was run: (§1)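 The binding signal is a Z-score computed within each array. Data were drawn from 3228 arrays in the Consortium for Functional Glycomics database, restricted to those with a known protein sequence. Scores were averaged over arrays of the same protein sequence at different concentrations or buffers, and over linkers, and negative values can be taken as non-binding.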

[1] = biological target: GalNAc(b1-4)GlcNAc(b1-2)Man
How it was run: as §1

[2] = biological target: GalNAc(b1-4)GlcNAc(b1-2)Man(a1-3)[GalNAc(b1-4)GlcNAc(b1-2)Man(a1-6)]Man(b1-4)GlcNAc(b1-4)GlcNAc
How it was run: as §1

[3] = biological target: GalNAc(b1-4)GlcNAc(b1-3)GalNAc(b1-4)GlcNAc
How it was run: as §1

GalNAc(b1-4)GlcNAc6S = biological target: GalNAc(b1-4)GlcNAc6S
How it was run: as §1

GalNAc(b1-6)GalNAc = biological target: GalNAc(b1-6)GalNAc
How it was run: as §1

GalNAc3S(b1-4)GlcNAc = biological target: GalNAc3S(b1-4)GlcNAc
How it was run: as §1

GalNAc3S(b1-4)GlcNAc3S = biological target: GalNAc3S(b1-4)GlcNAc3S
How it was run: as §1

[4] = biological target: GalNAc3S(b1-4)[Fuc(a1-3)]GlcNAc
How it was run: as §1

GalNAc4S6S(b1-4)GlcNAc = biological target: GalNAc4S6S(b1-4)GlcNAc
How it was run: as §1

GalNAc6S(b1-4)GlcNAc = biological target: GalNAc6S(b1-4)GlcNAc
How it was run: as §1

Glc(a1-4)Glc = biological target: Glc(a1-4)Glc
How it was run: as §1

[5] = biological target: Glc(a1-4)Glc(a1-4)Glc(a1-4)Glc
How it was run: as §1

Glc(a1-6)Glc(a1-6)Glc = biological target: Glc(a1-6)Glc(a1-6)Glc
How it was run: as §1

[6] = biological target: Glc(a1-6)Glc(a1-6)Glc(a1-6)Glc
How it was run: as §1

Glc(b1-4)Glc = biological target: Glc(b1-4)Glc
How it was run: as §1

Glc(b1-6)Glc = biological target: Glc(b1-6)Glc
How it was run: as §1

GlcA(b1-3)Gal = biological target: GlcA(b1-3)Gal
How it was run: as §1

GlcA(b1-3)GlcNAc = biological target: GlcA(b1-3)GlcNAc
How it was run: as §1

GlcA(b1-6)Gal = biological target: GlcA(b1-6)Gal
How it was run: as §1

[7] = biological target: GlcA3S(b1-3)Gal(b1-4)GlcNAc(b1-2)Man
How it was run: as §1

[8] = biological target: GlcA3S(b1-3)Gal(b1-4)GlcNAc(b1-3)Gal(b1-4)Glc
How it was run: as §1

[9] = biological target: GlcNAc(a1-3)Gal(b1-4)GlcNAc
How it was run: as §1

[10] = biological target: GlcNAc(a1-4)Gal(b1-3)GlcNAc
How it was run: as §1

[11] = biological target: GlcNAc(a1-4)Gal(b1-4)GalNAc
How it was run: as §1

[12] = biological target: GlcNAc(a1-4)Gal(b1-4)GlcNAc
How it was run: as §1

[13] = biological target: GlcNAc(a1-4)Gal(b1-4)GlcNAc(b1-3)Gal(b1-4)Glc
How it was run: as §1

[14] = biological target: GlcNAc(a1-4)Gal(b1-4)GlcNAc(b1-3)Gal(b1-4)GlcNAc
How it was run: as §1

[15] = biological target: GlcNAc(a1-4)Gal(b1-4)GlcNAc(b1-3)Gal(b1-4)GlcNAc(b1-3)Gal(b1-4)GlcNAc
How it was run: as §1

[16] = biological target: GlcNAc(a1-4)Gal(b1-4)GlcNAc(b1-3)Gal(b1-4)[Fuc(a1-3)]GlcNAc(b1-3)Gal(b1-4)[Fuc(a1-3)]GlcNAc
How it was run: as §1

[17] = biological target: GlcNAc(a1-6)Gal(b1-4)GlcNAc
How it was run: as §1

[18] = biological target: GlcNAc(b1-2)Gal(b1-3)GalNAc
How it was run: as §1

[19] = biological target: GlcNAc(b1-2)Man(a1-3)[GlcNAc(b1-2)Man(a1-6)]Man(b1-4)GlcNAc(b1-4)GlcNAc
How it was run: as §1

[20] = biological target: GlcNAc(b1-2)Man(a1-3)[GlcNAc(b1-2)Man(a1-6)]Man(b1-4)GlcNAc(b1-4)[Fuc(a1-6)]GlcNAc
How it was run: as §1

[21] = biological target: GlcNAc(b1-2)Man(a1-3)[GlcNAc(b1-4)][GlcNAc(b1-2)Man(a1-6)]Man(b1-4)GlcNAc(b1-4)GlcNAc
How it was run: as §1

[22] = biological target: GlcNAc(b1-2)Man(a1-3)[GlcNAc(b1-4)][GlcNAc(b1-2)Man(a1-6)]Man(b1-4)GlcNAc(b1-4)[Fuc(a1-6)]GlcNAc
How it was run: as §1

[23] = biological target: GlcNAc(b1-2)[GlcNAc(b1-4)]Man(a1-3)[GlcNAc(b1-2)Man(a1-6)]Man(b1-4)GlcNAc(b1-4)GlcNAc
How it was run: as §1

[24] = biological target: GlcNAc(b1-2)[GlcNAc(b1-4)]Man(a1-3)[GlcNAc(b1-4)][GlcNAc(b1-2)Man(a1-6)]Man(b1-4)GlcNAc(b1-4)GlcNAc
How it was run: as §1

[25] = biological target: GlcNAc(b1-2)[GlcNAc(b1-4)]Man(a1-3)[GlcNAc(b1-4)][GlcNAc(b1-2)[GlcNAc(b1-6)]Man(a1-6)]Man(b1-4)GlcNAc(b1-4)GlcNAc
How it was run: as §1

[26] = biological target: GlcNAc(b1-2)[GlcNAc(b1-4)]Man(a1-3)[GlcNAc(b1-4)][GlcNAc(b1-2)[GlcNAc(b1-6)]Man(a1-6)]Man(b1-4)GlcNAc(b1-4)[Fuc(a1-6)]GlcNAc
How it was run: as §1

[27] = biological target: GlcNAc(b1-2)[GlcNAc(b1-6)]Man(a1-6)[GlcNAc(b1-2)Man(a1-3)]Man(b1-4)GlcNAc(b1-4)GlcNAc
How it was run: as §1

[28] = biological target: GlcNAc(b1-2)[GlcNAc(b1-6)]Man(a1-6)[GlcNAc(b1-2)Man(a1-3)]Man(b1-4)GlcNAc(b1-4)[Fuc(a1-6)]GlcNAc
How it was run: as §1

[29] = biological target: GlcNAc(b1-2)[GlcNAc(b1-6)]Man(a1-6)[GlcNAc(b1-4)][GlcNAc(b1-2)Man(a1-3)]Man(b1-4)GlcNAc(b1-4)GlcNAc
How it was run: as §1

GlcNAc(b1-3)Fuc = biological target: GlcNAc(b1-3)Fuc
How it was run: as §1

GlcNAc(b1-3)Gal = biological target: GlcNAc(b1-3)Gal
How it was run: as §1

B1: LSL-150 (Laetiporus sulphureus), Q7Z8V1 (protein)
chain: MTDIYIPPEGLYFRLLGFASRQVIFARNSPSPDVGLSPVNDQATDQYFSLIYGTGEHAGLYAIKSKATGKVLFSRRPAEPYVGQIDGDGRYPDNWFKIEPGKTYLSKYFRLVQPSTGTALVSRTHLQPYFWNHPQTEVFDDQYFTFLFEDHHHHHH
**Q.** With B1 as the binder, how does the “glycan array binding signal (z-score)” value (GalNAc(b1-4)GlcNAc) read?
**A.** Its value is -0.197.

**Q.** What about the “glycan array binding signal (z-score)” value [1] of the same binder?
**A.** The value was -0.205.

**Q.** What about the “glycan array binding signal (z-score)” value [2] of the same binder?
**A.** The value was -0.195.

**Q.** And the “glycan array binding signal (z-score)” value [3]?
**A.** The value was -0.202.

**Q.** What about the “glycan array binding signal (z-score)” value (GalNAc(b1-4)GlcNAc6S) of the same binder?
**A.** Its value is -0.203.

**Q.** And the “glycan array binding signal (z-score)” value (GalNAc(b1-6)GalNAc)?
**A.** The value was -0.195.

**Q.** And the “glycan array binding signal (z-score)” value (GalNAc3S(b1-4)GlcNAc)?
**A.** Its value is -0.201.

**Q.** What about the “glycan array binding signal (z-score)” value (GalNAc3S(b1-4)GlcNAc3S) of the same binder?
**A.** The value was -0.206.

**Q.** What about the “glycan array binding signal (z-score)” value [4] of the same binder?
**A.** The value was -0.203.

**Q.** And the “glycan array binding signal (z-score)” value (GalNAc4S6S(b1-4)GlcNAc)?
**A.** Its value is -0.204.

**Q.** And the “glycan array binding signal (z-score)” value (GalNAc6S(b1-4)GlcNAc)?
**A.** The value was -0.211.

**Q.** What about the “glycan array binding signal (z-score)” value (Glc(a1-4)Glc) of the same binder?
**A.** The value was -0.208.

**Q.** What about the “glycan array binding signal (z-score)” value [5] of the same binder?
**A.** The value was -0.199.

**Q.** What about the “glycan array binding signal (z-score)” value (Glc(a1-6)Glc(a1-6)Glc) of the same binder?
**A.** Its value is -0.201.

**Q.** What about the “glycan array binding signal (z-score)” value [6] of the same binder?
**A.** The value was -0.207.

**Q.** And the “glycan array binding signal (z-score)” value (Glc(b1-4)Glc)?
**A.** The value was -0.205.

**Q.** And the “glycan array binding signal (z-score)” value (Glc(b1-6)Glc)?
**A.** Its value is -0.205.

**Q.** And the “glycan array binding signal (z-score)” value (GlcA(b1-3)Gal)?
**A.** The value was -0.209.

**Q.** And the “glycan array binding signal (z-score)” value (GlcA(b1-3)GlcNAc)?
**A.** Its value is -0.206.

**Q.** What about the “glycan array binding signal (z-score)” value (GlcA(b1-6)Gal) of the same binder?
**A.** Its value is -0.204.

**Q.** What about the “glycan array binding signal (z-score)” value [7] of the same binder?
**A.** The value was -0.206.

**Q.** What about the “glycan array binding signal (z-score)” value [8] of the same binder?
**A.** The value was -0.122.

**Q.** And the “glycan array binding signal (z-score)” value [9]?
**A.** Its value is -0.2.

**Q.** What about the “glycan array binding signal (z-score)” value [10] of the same binder?
**A.** Its value is -0.2.

**Q.** And the “glycan array binding signal (z-score)” value [11]?
**A.** The value was -0.207.

**Q.** What about the “glycan array binding signal (z-score)” value [12] of the same binder?
**A.** Its value is -0.201.

**Q.** And the “glycan array binding signal (z-score)” value [13]?
**A.** Its value is -0.202.

**Q.** And the “glycan array binding signal (z-score)” value [14]?
**A.** The value was -0.043.

**Q.** What about the “glycan array binding signal (z-score)” value [15] of the same binder?
**A.** Its value is 0.458.

**Q.** And the “glycan array binding signal (z-score)” value [16]?
**A.** The value was -0.199.

**Q.** And the “glycan array binding signal (z-score)” value [17]?
**A.** The value was -0.215.

**Q.** And the “glycan array binding signal (z-score)” value [18]?
**A.** The value was -0.203.

**Q.** What about the “glycan array binding signal (z-score)” value [19] of the same binder?
**A.** Its value is -0.205.

**Q.** And the “glycan array binding signal (z-score)” value [20]?
**A.** Its value is -0.199.

**Q.** And the “glycan array binding signal (z-score)” value [21]?
**A.** The value was -0.198.

**Q.** What about the “glycan array binding signal (z-score)” value [22] of the same binder?
**A.** The value was -0.207.

**Q.** What about the “glycan array binding signal (z-score)” value [23] of the same binder?
**A.** Its value is -0.209.

**Q.** What about the “glycan array binding signal (z-score)” value [24] of the same binder?
**A.** Its value is -0.202.

**Q.** And the “glycan array binding signal (z-score)” value [25]?
**A.** Its value is -0.212.

**Q.** What about the “glycan array binding signal (z-score)” value [26] of the same binder?
**A.** Its value is -0.208.

**Q.** And the “glycan array binding signal (z-score)” value [27]?
**A.** Its value is -0.201.

**Q.** And the “glycan array binding signal (z-score)” value [28]?
**A.** Its value is -0.208.

**Q.** What about the “glycan array binding signal (z-score)” value [29] of the same binder?
**A.** Its value is -0.206.

**Q.** And the “glycan array binding signal (z-score)” value (GlcNAc(b1-3)Fuc)?
**A.** The value was -0.204.

**Q.** And the “glycan array binding signal (z-score)” value (GlcNAc(b1-3)Gal)?
**A.** The value was -0.195.
